Test results: the supplement of paper PMC5919970
Structures can show the parent of a compound that is named as a salt. Whole data set: some 2,000 compounds, median “fractional viability relative to vehicle” near 0.91, cut for the lowest 2% near 0.045. Some of the results follow.

Tested on: TYKNU
Assay: fractional viability relative to vehicle; TYKNU is a high-grade serous ovarian cancer line; higher = less growth inhibition
Details: 72 h
In short: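 Drug treatment lasted 72 h, with cells grown at 37 °C in 5% CO2 in RPMI 1640 supplemented with 10% FBS. Beforehand, TYKNU control cells or their lentiCRISPRv2 knockout derivatives had been seeded at 500 cells per well into drug-stamped 384-well plates carrying a ~2100-compound library at 2 or 10 μM, in duplicate. Viability came from Cell Titer Glo luminescence, with averaged duplicate treatment wells normalised to duplicate control wells in the same plate position.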

[1] = 2uM, genotype: DNM1L knockout (sgDNM1L #1)
[2] = 2uM, genotype: sgCTRLA1 (non-targeting control)
[3] = 10uM, genotype: DNM1L knockout (sgDNM1L #1)
[4] = 10uM, genotype: sgCTRLA1 (non-targeting control)

SMILES	fractional viability [1]	fractional viability [2]	fractional viability [3]	fractional viability [4]
CC(=O)Oc1cc2c(s1)CCN(C(C(=O)C1CC1)c1ccccc1F)C2 (configuration not stated) [Prasugrel]	1.14	1.21	0.897	1.08
CC(C)CN(C[C@@H](O)[C@H](Cc1ccccc1)NC(=O)O[C@H]1CO[C@H]2OCC[C@H]21)S(=O)(=O)c1ccc(N)cc1 [Darunavir Ethanolate]	1.05	1.13	0.94	1.04
COc1cc(/C=C/C(=O)CC(=O)/C=C/c2ccc(O)c(OC)c2)ccc1O [Curcumin]	1.02	1.02	0.92	0.898
Cc1cc2c(F)c(Oc3ncnn4cc(OC[C@@H](C)O)c(C)c34)ccc2[nH]1	0.804	0.956	0.487	0.469
O=C(O)CSCC(=O)NC1CCSC1=O (configuration not stated) [Erdosteine]	1.12	0.966	0.984	0.987
CN1CCN(C2CCN(C(=O)Nc3cc(Oc4ccc(NC(=O)C5(C(=O)Nc6ccc(F)cc6)CC5)c(F)c4)ccn3)CC2)CC1 [Golvatinib (E7050)]	0.89	0.894	0.198	0.168
C[N+](C)(C)CCO.[Cl-] [Choline Chloride]	0.782	1.05	0.777	0.905
O=c1[nH]cnc2[nH]ncc12 [Allopurinol Sodium]	1.03	1.12	0.954	1.13
CCOC(=O)[C@H](CCc1ccccc1)N[C@@H](C)C(=O)N1Cc2cc(OC)c(OC)cc2C[C@H]1C(=O)O [Moexipril HCl]	0.907	1.2	0.939	1.1
Cn1cc(-c2ccc3nnc(Sc4ccc5ncccc5c4)n3n2)cn1	1.1	1.07	1.09	1.12
Clc1ccc(Nc2nnc(Cc3ccncc3)c3ccccc23)cc1 [Vatalanib (PTK787) 2HCl]	1.08	1.08	1.06	1.05
Cc1cc(O)c2c(c1)C(=O)c1cc(O)cc(O)c1C2=O [Emodin]	1.11	1.13	0.844	0.99
O=C1NC(=O)/C(=C/c2cccc(C(F)(F)F)c2)S1	0.748	0.945	0.687	0.786
Nc1nc(O)c2ncn(CCC(CO)CO)c2n1 [Penciclovir]	0.91	1.11	0.833	1.2
Fc1ccc([C@@H]2CCNC[C@H]2COc2ccc3c(c2)OCO3)cc1 [Paroxetine HCl]	1.02	0.935	0.299	0.347
CN(C/C=C/C#CC(C)(C)C)Cc1cccc2ccccc12 [Terbinafine]	1.1	1.16	0.828	0.997
CN(C/C=C/C#CC(C)(C)C)Cc1cccc2ccccc12 [Terbinafine HCl]	1.08	1.07	0.889	1
O=c1[nH]cnc2c1ncn2[C@H]1CC[C@@H](CO)O1 [Didanosine]	0.976	1.12	0.872	0.985
Nc1nc(Nc2ccc3c(c2)CCC(N2CCCC2)CC3)nn1-c1cc2c(nn1)-c1ccccc1CCC2 (configuration not stated)	0.343	0.242	0.0232	0.0259
CCCC(=O)OCOC(=O)C1=C(C)NC(C)=C(C(=O)OC)C1c1cccc(Cl)c1Cl (configuration not stated) [Clevidipine Butyrate]	0.856	1.02	0.882	0.982

SMILES	fractional viability [1]	fractional viability [2]	fractional viability [3]	fractional viability [4]
NC(CO)C(=O)NNCc1ccc(O)c(O)c1O (configuration not stated) [Benserazide HCl]	1.13	1.06	1.01	0.448
C[C@H]1COc2c(N3CCN(C)CC3)c(F)cc3c(=O)c(C(=O)O)cn1c23 [Levofloxacin]	1.04	1.22	0.86	1.22
CCC(=O)Nc1cccc(Oc2nc(Nc3ccc(N4CCN(C)CC4)cc3OC)ncc2Cl)c1	0.867	0.981	0.303	0.347
C=CC(=O)Nc1cccc(Nc2nc(Nc3ccc(OCCOC)cc3)ncc2F)c1	0.626	0.721	0.273	0.297
N#Cc1c(NC(=O)c2cccc3ccccc23)sc2c1CCCC2 [JNK Inhibitor IX]	0.125	0.11	0.127	0.0878
COC(=O)Nc1nc2cc([S+]([O-])c3ccccc3)ccc2[nH]1 (configuration not stated) [Oxfendazole]	1.06	1.09	0.846	0.91
CCc1c(Cl)c(O)c(Cl)c(O)c1C(=O)O[C@H]1[C@H](O)[C@H](OC)[C@H](OC/C2=C\C=C\C[C@H](O)/C(C)=C/[C@H](CC)[C@@H](O[C@@H]3OC(C)(C)[C@@H](OC(=O)C(C)C)[C@H](O)[C@@H]3O)/C(C)=C/C(C)=C/C[C@@H]([C@@H](C)O)OC2=O)O[C@@H]1C [Fidaxomicin]	0.741	0.893	0.494	0.0966
Nc1ccn([C@@H]2CS[C@H](CO)O2)c(=O)n1 [Lamivudine]	1.02	1.02	0.884	0.91
COc1ccccc1OCC(O)COC(N)=O (configuration not stated) [Methocarbamol]	1.02	1.16	0.9	1
O=C1NCCCc2c1oc1ccc(O)cc21	0.944	1.01	0.872	1.07
O=C(Nc1ccccc1)Nc1ccc(-c2ccc(C(=O)[C@@H]3CCC[C@H]3C(=O)O)cc2)cc1	1.15	1.01	0.991	1.12
CN(C)C/C=C/C(=O)Nc1cc2c(Nc3ccc(F)c(Cl)c3)ncnc2cc1O[C@H]1CCOC1 [Afatinib (BIBW2992)]	0.578	0.809	0.0953	0.0868
CN(C)C/C=C/C(=O)Nc1cc2c(Nc3ccc(F)c(Cl)c3)ncnc2cc1O[C@H]1CCOC1 [Afatinib (BIBW2992) Dimaleate]	0.77	0.984	0.77	0.767
O=C1NC(=O)C(c2ccccc2)(c2ccccc2)N1 [Phenytoin]	0.907	1.05	0.825	1.13
CC(C)(O)c1ccccc1CC[C@@H](SCC1(CC(=O)O)CC1)c1cccc(/C=C/c2ccc3ccc(Cl)cc3n2)c1 [Montelukast Sodium]	0.809	1.13	0.762	1.05
O=C(Nc1ccccc1Br)N[C@@H]1CCN(c2ccc(C(F)(F)F)cn2)C1	0.967	1.15	0.64	0.746
COc1ccc(S(=O)(=O)N(CCO)c2ccccc2CN(C)C/C=C/c2ccc(Cl)cc2)cc1 [KN-93 Phosphate]	0.727	0.888	0.332	0.333
CN(C)CC(c1ccc(O)cc1)C1(O)CCCCC1 (configuration not stated) [Desvenlafaxine Succinate]	1.01	1.06	0.834	1.07
CN(C)CC(c1ccc(O)cc1)C1(O)CCCCC1 (configuration not stated) [Desvenlafaxine]	1.02	1.2	0.867	1.12
O=C(NOCC(O)CO)c1cc(Br)c(F)c(F)c1Nc1ccc(I)cc1F (configuration not stated)	0.463	0.563	0.243	0.299

SMILES	fractional viability [1]	fractional viability [2]	fractional viability [3]	fractional viability [4]
C#CCC(Cc1cnc2nc(N)nc(N)c2n1)c1ccc(C(=O)N[C@@H](CCC(=O)O)C(=O)O)cc1 (some centres not stated) [Pralatrexate]	0.325	0.314	0.19	0.307
O=C(C[S+]([O-])Cc1ccco1)NC/C=C\COc1cc(CN2CCCCC2)ccn1 (configuration not stated) [Lafutidine]	1	1.2	0.826	1.06
CCN(CC)CCCC(C)Nc1nc(C)cc(Nc2ccc3nc(C)cc(N)c3c2)n1 (configuration not stated)	0.927	0.862	0.802	0.667
COc1c(N2CCNC(C)C2)c(F)cc2c(=O)c(C(=O)O)cn(C3CC3)c12 (configuration not stated) [Gatifloxacin]	1.02	1.24	1.21	1.09
O=C(c1ccccc1)c1ccc2n1CCC2C(=O)O (configuration not stated) [Ketorolac]	0.998	1.08	0.879	0.997
Nc1ncnc2n[nH]c(Nc3ccc(F)cc3)c12	1.14	1.07	0.592	0.453
CCn1cc(NC(=S)Nc2cc(Cl)ccc2OC)c(C(N)=O)n1	0.866	0.968	0.864	0.829
CC[C@H](C)C[C@H](C)CCCCCCCCC(=O)N[C@H]1C[C@@H](O)[C@@H](NCCN)NC(=O)[C@@H]2[C@@H](O)CCN2C(=O)[C@H]([C@H](O)CCN)NC(=O)[C@H]([C@H](O)[C@@H](O)c2ccc(O)cc2)NC(=O)[C@@H]2C[C@@H](O)CN2C(=O)[C@H]([C@@H](C)O)NC1=O [Caspofungin Acetate]	0.98	1.17	0.637	1.01
CN(C)Cc1ccc(S(=O)(=O)n2ccc(/C=C/C(=O)NO)c2)cc1 [Resminostat]	0.674	0.662	0.0944	0.23
c1ccc(CN(CC2=NCCN2)c2ccccc2)cc1 [Antazoline HCl]	0.795	1.07	0.744	1.04
CN(C)CC/C=C1/c2ccccc2COc2ccc(CC(=O)O)cc21 [Olopatadine HCl]	0.937	1.02	0.844	1.03
CCCCCCCCCCCC[N+](C)(C)CCOc1ccccc1 [Domiphen Bromide]	0.558	0.882	0.0673	0.0826
Cc1ccc(-n2nc(C(C)(C)C)cc2NC(=O)Nc2ccc(OCCN3CCOCC3)c3ccccc23)cc1 [BIRB 796 (Doramapimod)]	0.868	1.12	0.869	0.992
Cc1cc(OCc2nnc(SC3CCCC3)n2-c2cccnc2)ccc1-c1ccc(S(C)(=O)=O)cc1	0.545	0.46	0.0437	0.0922
CNC(=O)c1ccc(C)c(-n2c(C)cc(OCc3ccc(F)cc3F)c(Br)c2=O)c1	0.969	0.826	0.759	0.872
CC(C)C[C@H](NC(=O)CNC(=O)c1cc(Cl)ccc1Cl)B1OC(=O)C(CC(=O)O)(CC(=O)O)O1	0.13	0.0935	0.0814	0.0756
CC[C@@H](CO)NCCN[C@@H](CC)CO [Ethambutol HCl]	1.11	1.1	0.838	1.1
CCN(CC)CCCCNc1ncc2cc(-c3cc(OC)cc(OC)c3)c(NC(=O)NC(C)(C)C)nc2n1	1.08	0.934	0.347	0.357
